In the supplement of paper PMC4723716 one finds viability index data, which are given here for 36 compounds.

Structures are written as SMILES. ± gives the uncertainty stated by the source. Over roughly 9,900 compounds, “viability index relative to DMSO control” has its median near 1; the lowest 2% begin near 0.85. The list shows a part of the results.

This experiment deals with Plasmodium falciparum NF54 stage V gametocytes. Put plainly: viability index relative to DMSO control (fraction); higher = less gametocyte killing. The note with it: 2.5 µM, library set: Broad Institute DOS, incubation time: 72 h. In short, it runs like this:
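Viability index is the count of red-stained particles in a well divided by the plate mean of solvent-only wells. Particles of 20–70 µm2 were counted in one imaged field per well after one to two hours with 3 µl of 2.5 µM MitoTracker Red CMXRos and 0.13% saponin. Before staining, P. falciparum NF54 stage V gametocytes in serum-free medium (0.75% gametocytemia, 1.25% hematocrit, 10 µl, 1,536-well plates) were kept with compound at 2.5 µM for 72 hr at 37°C under low oxygen.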

For `C[C@@H]1CN([C@@H](C)CO)C(=O)CCCn2nncc2CO[C@@H]1CN(C)Cc1ccc2cccnc2c1`, the viability index was 1.01 ± 0.064. The compound `CCC(=O)N1C[C@H](C)[C@H](OC)CN(C)C(=O)c2cc(NC(=O)Nc3ccc(Cl)cc3)ccc2OC[C@H]1C` yielded a viability index of 1.05 ± 0.052. With `O=C(C[C@@H]1C=C[C@H](NC(=O)Cc2cccnc2)[C@@H](CO)O1)NCc1ccc2c(c1)OCO2` the figure was 1.13 ± 0.067. Compound `N#Cc1ccc(-c2ccc([C@H]3[C@@H]4CN(C(=O)c5cccnc5)C[C@H]3N4)cc2)cc1` yielded a viability index of 1.15 ± 0.046.

Regarding `O=C(c1ccc(F)cc1)N1CC(=O)N2[C@H](CO)[C@@H](c3ccc(C#CCC4CCCC4)cc3)[C@H]2C1`, the viability index worked out at 1.07 ± 0.025. Compound `C[C@H](CO)N1C[C@H](C)[C@H](CN(C)Cc2cccnc2)Oc2ncc(-c3ccc(C#N)cc3)cc2C1=O` showed a viability index of 1.03 ± 0.07. The figure for `COc1ccc(C[C@H]2CCn3cc(nn3)COC[C@@H](c3ccccc3)NC2=O)cc1` is 1.02 ± 0.02; for `C[C@H]1CN([C@@H](C)CO)C(=O)CCCn2nncc2CO[C@H]1CN(C)Cc1cccc(C(F)(F)F)c1` it is 1.029 ± 0.0053.

For `COc1ccc(CN2C[C@H](O)COC[C@H]3O[C@H](CC(=O)N(C)C)CC[C@@H]32)cc1`, the viability index was 1.14 ± 0.016. With `CO[C@H]1CN(C)C(=O)c2cc(NC(=O)CC(F)(F)F)ccc2OC[C@H](C)N(CC2CC2)C[C@@H]1C` the figure was 1 ± 0.031; with `Cc1noc(C)c1C(=O)N(C)C[C@H]1OCc2ccccc2-c2ccccc2C(=O)N([C@@H](C)CO)C[C@@H]1C`, 1.01 ± 0.065; with `O=C(C[C@@H]1CC[C@H]2[C@@H](COC[C@H](O)CN2C(=O)Cc2ccccc2)O1)NC1Cc2ccccc2C1`, 1.02 ± 0.092. As for `C[C@H]1CN([C@@H](C)CO)C(=O)c2ccccc2-c2ccccc2CO[C@@H]1CN(C)C(=O)[C@H]1CCCN1C`, the viability index worked out at 0.952 ± 0.11. Turning to `O=S(=O)(NC[C@@H]1[C@H](c2ccccc2)[C@H](CO)N1CC1CC1)c1ccccc1`, the viability index was determined as 1.03 ± 0.049. Consider `CO[C@@H](CN(C)S(=O)(=O)c1ccc(F)cc1)[C@@H](C)CN(Cc1ccccc1Cl)[C@@H](C)CO`, for which the viability index amounted to 0.947 ± 0.085. Consider `O=C(C[C@H]1CC[C@@H]2[C@H](COC[C@H](O)CN2C(=O)c2ccc3c(c2)OCO3)O1)NC1CCC1`, for which the viability index was determined as 1.07 ± 0.0047. With `COc1ccc2c3c([nH]c2c1)[C@@H](CO)NC[C@]31CCN(CC1)C(=O)C1CCOCC1`, the viability index amounted to 0.913 ± 0.043. On to `CN1C[C@@H]2[C@H](c3ccccc31)[C@@H](CO)N2S(=O)(=O)c1ccccc1`, for which the viability index amounted to 0.969 ± 0.059. With `COc1ccc2c3c([nH]c2c1)[C@@H](CO)N(C[C@]31CN(C1)C(=O)c1cccnc1)C(=O)CN(C)C`, the viability index is 1.06 ± 0.074. Compound `O=C(C[C@@H]1CC[C@@H]2NC[C@@H](O)COC[C@H]2O1)NCCc1ccncc1` displayed a viability index of 0.998 ± 0.085.

The compound `O=C(Nc1ccc(-c2ccccc2)cc1)[C@@H]1[C@@H](CO)[C@@H]2Cn3c(cccc3=O)[C@@H]2N1CC1CCOCC1` yielded a viability index of 0.931 ± 0.11. For the compound `CCN(C[C@H]1[C@H](c2ccccc2)[C@@H](CO)N1CC1CC1)C(=O)c1ccccn1`, the viability index worked out at 1.06 ± 0.0024. With `COCC(=O)Nc1ccc2c(c1)OC[C@H](C)N(C)C[C@H](C)[C@H](OC)CN(C)C2=O` the figure was 1.08 ± 0.012; with `COc1cccc(NC(=O)C[C@H]2CC[C@@H]3[C@H](COc4ccc(NC(=O)C5CC5)cc4C(=O)N3C)O2)c1`, 1.15 ± 0.12. The figure for `C[C@H](CO)N1C[C@H](C)[C@H](CN(C)C(=O)Cc2ccccn2)Oc2ncc(-c3cccc(C(=O)N(C)C)c3)cc2C1=O` is 1.07 ± 0.12. With `C[C@H]1CN([C@@H](C)CO)C(=O)c2cc(C#CC3(O)CCCC3)cnc2O[C@H]1CN(C)S(=O)(=O)c1cccc(F)c1` the figure was 1.13 ± 0.062; with `CO[C@H]1CN(C)C(=O)c2ccc(NC(=O)Nc3ccccc3Cl)cc2OC[C@@H](C)NC[C@@H]1C`, 1.036 ± 0.0033. With `C/C=C/c1ccc([C@@H]2[C@@H](CO)N3C(=O)CN(C(=O)c4ccncc4)C[C@H]23)cc1`, the viability index worked out at 0.96 ± 0.021. Compound `C[C@@H]1CN([C@H](C)CO)C(=O)c2c(c3ccccc3n2C)-c2ccccc2CO[C@@H]1CN(C)S(=O)(=O)c1ccc([N+](=O)[O-])cc1` registered a viability index of 0.933 ± 0.0098. With `O=C(C[C@@H]1CC[C@H]2[C@@H](COC[C@@H](O)CN2CCC(F)(F)F)O1)NCc1ccc2c(c1)OCO2` the figure was 1.051 ± 0.0041; with `CC(C)C#Cc1ccc([C@@H]2[C@H](CO)N3C(=O)CN(C(=O)Cc4ccccc4)C[C@@H]23)cc1`, 1.1 ± 0.016. In the case of `COc1ccc(C[C@H]2CCn3cc(nn3)COC[C@H](C)NC2=O)cc1`, the viability index was determined as 0.976 ± 0.055. Compound `CC(=O)N1[C@@H]2Cn3c(ccc(-c4cccnc4)c3=O)[C@H]1[C@@H](C(=O)NC1Cc3ccccc3C1)[C@@H]2CO` gave a viability index of 1.11 ± 0.013. Consider `CCCNC(=O)N1C[C@@]2(C1)CN([C@H](CO)c1c2c2ccc(OC)cc2n1C)S(C)(=O)=O`, for which the viability index amounted to 0.962 ± 0.02. `CS(=O)(=O)N1[C@@H](CO)[C@@H](c2ccccc2)C12CN(Cc1cc(F)ccc1F)C2`: the viability index was determined as 1.04 ± 0.031. `C[C@H](CO)N1C[C@H](C)[C@@H](CN(C)S(C)(=O)=O)Oc2ncc(-c3ccc(F)cc3)cc2C1=O` showed a viability index of 1.04 ± 0.074.
